From USRE48267E1, “Variants of C-type natriuretic peptide” (priority 2009, dated 2020)
Entries after “also recorded” stand apart in the source; their conditions may differ. Read-outs that look alike come from different tables or passages of the source. At least one peptide structure holds a part that was inferred or is arguable (an end, a ring closure or a residue).

Tests used:
NPR-A = target: T1, NPR-A (Homo sapiens, UniProt P16066); experiment: signaling competition assay, cGMP signaling through NPR-A in transfected HEK293T cells; assay type: cell-based
T1 construct: expressed in transfected cells; host or cells: HEK293T
T1 sequence (P16066 33-1061): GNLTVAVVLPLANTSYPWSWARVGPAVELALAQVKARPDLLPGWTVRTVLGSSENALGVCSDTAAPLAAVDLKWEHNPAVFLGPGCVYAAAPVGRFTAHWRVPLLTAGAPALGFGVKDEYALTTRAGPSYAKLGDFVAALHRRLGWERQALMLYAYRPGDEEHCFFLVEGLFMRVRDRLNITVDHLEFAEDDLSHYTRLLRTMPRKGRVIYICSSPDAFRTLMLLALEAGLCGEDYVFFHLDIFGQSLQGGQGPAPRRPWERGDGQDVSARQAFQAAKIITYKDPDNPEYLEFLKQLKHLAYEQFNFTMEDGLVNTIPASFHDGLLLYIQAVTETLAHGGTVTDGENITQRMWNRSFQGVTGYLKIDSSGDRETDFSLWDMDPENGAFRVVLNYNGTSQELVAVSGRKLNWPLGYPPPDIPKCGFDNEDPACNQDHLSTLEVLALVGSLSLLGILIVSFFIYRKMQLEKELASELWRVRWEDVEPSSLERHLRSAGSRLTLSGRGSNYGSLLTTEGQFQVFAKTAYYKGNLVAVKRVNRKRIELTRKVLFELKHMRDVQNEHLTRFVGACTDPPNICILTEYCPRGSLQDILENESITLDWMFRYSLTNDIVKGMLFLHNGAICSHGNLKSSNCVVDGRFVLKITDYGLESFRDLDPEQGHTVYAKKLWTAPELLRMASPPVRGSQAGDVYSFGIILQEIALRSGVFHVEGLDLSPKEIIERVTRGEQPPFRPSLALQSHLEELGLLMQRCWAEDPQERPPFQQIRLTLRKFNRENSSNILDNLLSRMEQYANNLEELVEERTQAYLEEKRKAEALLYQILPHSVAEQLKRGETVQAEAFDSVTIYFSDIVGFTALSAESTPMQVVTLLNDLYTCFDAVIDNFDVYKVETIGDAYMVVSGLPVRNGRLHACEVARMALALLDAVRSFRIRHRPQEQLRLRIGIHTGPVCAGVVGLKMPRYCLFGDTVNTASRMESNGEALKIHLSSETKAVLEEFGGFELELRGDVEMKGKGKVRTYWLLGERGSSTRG

[1] = tested on: wild-type mouse femurs and tibias; experiment: mouse organ culture model of endochondral bone growth, wild-type bones
Method: (§1) To determine the efficacy of CNP variants in stimulating longitudinal bone growth, CNP variants were tested in a mouse organ culture model of endochondral bone growth in wild-type mice and transgenic mice having a G380R mutation in the human FGFR-3 gene (FGFR3^wt/Ach heterozygote) which represent a mouse model of mild achondroplasia. In brief, the pharmacological activity of wild-type CNP22 and CNP variants was compared in an organ culture model of embryonic or neonatal mouse tibiae, isolated from wild-type and FGFR3^wt/Ach littermates. Overall bone growth and histological changes within the growth plate were assessed. Conditioned culture medium is also assessed for biomarkers of intracellular signaling (cGMP), cartilage metabolism (type II collagen, other collagens, aggrecan chondroitin sulfate), bone metabolism (bone alkaline phosphatase, osteocalcin, type I collagen [C-telopeptide, N-telopeptide]), and inflammation (interleukin-1, interleukin 6, interleukin-11).
(§2) The efficacy of wtCNP22, CNP37 and PEO24-[…]22(K4R) (SEQ ID NO: 36) in stimulating longitudinal femoral growth was evaluated in the mouse organ culture model. For these experiments femora were isolated from 2-3 day old wild-type mice and cultured in alphaMEM supplemented with 0.2% BSA, 0.5 mM L-glutamine, 40 units penicillin/mL and 40 ug streptomycin/mL, for 8 days in the presence of vehicle, CNP22 or CNP variants. The treatment commenced at day 0 and was repeated every two days thereafter, as the medium was changed. Bones were measured prior to treatment and every two days thereafter, using a dissection microscope fitted with a 1 cm eye-piece reticule. Conditioned medium was used for biomarker analysis. At day 8 bones were fixed in 4% paraformaldehyde for 24 hr, decalcified in 5% formic acid for 24 hrs, dehydrated and embedded in paraffin. Bones were sectioned at 5 um (microns), which were then deparaffinized, rehydrated, and stained with Alcian Blue for 30 min (pH 2.5; MasterTech). Alcian Blue stains cartilage blue. Stained sections were visualized and photographed by brightfield microscopy. The thickness of the hypertrophic region of the growth plate cartilage was determined by image analysis.
(§3) In addition to the distribution of CNP variants in the bone growth plate, the ex vivo effects of CNP37, CNP22 and vehicle on cells in the FGFR3^ach and wild-type growth plate, e.g., hypertrophic cell size and cellularity of proliferating zone, were also evaluated. Bone samples were prepared, including Alcian Blue staining, as described above. Images of the entire proximal growth plate were taken at 4× magnitude. The growth plate is divided into three zones, starting from the epiphyseal side of cartilage: the resting zone (individual small chondrocytes), proliferating zone (columns of stacked chondrocytes parallel to the long axis of the bone), and hypertrophic zone (large chondrocytes and thin septa between the chondrocytes). In these regions, measurements were made by ImageJ software, including the number of proliferating chondrocytes per column and the density of hypertrophic chondrocytes. A test square (4×4 mm^2) at five different regions of the hypertrophic zone was used to determine the density of hypertrophic chondrocytes. The cell size of hypertrophic chondrocytes was calculated by 1 over determined cell density. Cellularity of proliferating columns was increased by CNP37 and CNP22 in both wild-type and FGFR3^ach mice (FIGS. 35B and C).
Femurs and tibias were isolated from wild-type and FGFR3^ach mice as described above. Bones were cultured with CNP22 or a variant thereof for eight days with the replacement of media every two days. On the eighth day, media was collected and analyzed for the biomarkers cGMP (cyclic guanosine 3′, 5′ cyclic monophosphate) and fragments of cleaved collagen type II, a cartilage-specific marker for cartilage turnover. […]

[2] = tested on: FGFR3^ach mouse femurs and tibias; experiment: mouse organ culture model of endochondral bone growth, FGFR3^ach bones
Method: as §1, §2
Furthermore, ex vivo distribution of CNP37 in the growth plate of FGFR3^ach mouse tibia was evaluated. Bone samples were prepared as described above. Paraffin sections were cut and heat fixed for 1 hour at 60° C. Antigen retrieval with 1% hyaluronidase at 37° C. (30 minutes) was followed by a 1 hour serum block (10% Normal Goat Serum). CNP22 antibody (1:500 dilution; Peninsula Laboratories Inc., San Carlos, Calif.) was applied overnight at 4° C. For immunodetection, Vectastain ELITE ABC kit (Vector, Burlingame, Calif.) was used according to the manufacturer's recommendations. Specific bound peroxidase was visualized by incubation with DAB substrate kit (Vector) and the reaction was developed for 3 minutes. Slides were then dehydrated and mounted and photographed using a brightfield microscope.
as §3, with “A test square (4×4 mm^2) at five different regions of the hypertrophic zone was used to determine the density of hypertrophic chondrocytes. The cell size of hypertrophic chondrocytes was calculated by 1 over determined cell density. Cellularity of proliferating columns was increased by CNP37 and CNP22 in both wild-type and FGFR3^ach mice (FIGS. 35B and C).” left out

wild-type tibiae = conditions: cited from earlier work
[3] = tested on: rat chondrosarcoma (RCS) cells; experiment: growth of FGF2-arrested rat chondrosarcoma (RCS) cells; assay type: cell-based; conditions: for effect on chondrocyte growth relative to continuous exposure: FGF-2 5 ng/mL
[4] = FGFR3^ach growth plate, ex vivo

CC[C@H](C)[C@@H]1NC(=O)[C@H](CCCNC(=N)N)NC(=O)[C@H](CC(=O)O)NC(=O)[C@H](CC(C)C)NC(=O)[C@H](CCCCN)NC(=O)[C@H](CC(C)C)NC(=O)CNC(=O)[C@H](Cc2ccccc2)NC(=O)[C@@H](NC(=O)CNC(=O)[C@H](CCCCN)NC(=O)[C@H](CO)NC(=O)[C@H](CC(C)C)NC(=O)CN)CSSC[C@@H](C(=O)O)NC(=O)CNC(=O)[C@H](CC(C)C)NC(=O)CNC(=O)[C@H](CO)NC(=O)[C@H](CCSC)NC(=O)[C@H](CO)NC(=O)CNC1=O [CNP22, reference compound]
cGMP production through NPR-B compared with through NPR-A (NPR-A): to a much greater extent than through NPR-A | cGMP levels in conditioned media ([1]; ex-planted wild-type mouse femurs and tibias, day 8): large increase (p<0.01) | longitudinal growth of wild-type mouse femur ex vivo ([1]; treated every two days, 8 days): effective in stimulating longitudinal femoral growth; also recorded: stimulated the growth of wild-type mouse femur | cellularity of proliferating columns ([1]; wild-type growth plate, ex vivo): increased | levels of cleaved collagen type II in conditioned media ([1]; wild-type mouse femurs): increased | cellularity of proliferating columns [2, 4]: increased | chondrocyte hypertrophy [2, 4]: increased | levels of cleaved collagen type II in conditioned media ([2]; FGFR3^ach mouse femurs): significantly increased (p<0.05) | cGMP levels in conditioned media ([2]; ex-planted FGFR3^ach mouse femurs and tibias, day 8): large increase (p<0.01) | longitudinal growth of FGFR3^ach mouse femur ex vivo ([2]; treated every two days): increased the longitudinal growth of FGFR3^ach mouse femur compared to vehicle | increase of longitudinal growth of wild-type tibiae (wild-type tibiae; 10^−6 M for 6 days): 42% | increase of longitudinal growth of wild-type tibiae (wild-type tibiae; 10^−7 M for 6 days): 40% | increase of longitudinal growth of wild-type tibiae (wild-type tibiae; 10^−8 M for 6 days): 31% | extracellular matrix of FGF-2 treated RCS cells ([3]; 35S-sulfate and 3H-Pro incorporation, histology): antagonized FGF2-mediated loss of chondrosarcoma extracellular matrix and increased matrix synthesis | effect on chondrocyte growth relative to continuous exposure ([3]; 1 hr exposure (0.2 uM) once a day): about 84% | effect on chondrocyte growth relative to continuous exposure ([3]; 2 hr exposure (0.2 uM) once a day): about 84% | growth of RCS cells ([3]; continuous exposure (72 hr) to 0.2 uM in the presence of 5.0 ng/mL FGF-2): approximately 200×10^3 cells per well
